# Values joined by “and” are separate entries in the source; they are usually repeats but may differ in a detail not shown here. Equal values may be shown once. Among all 150,000 compounds or so, about 6,500 (4.3%) were called active. Inconclusive results, whose numbers are uncertain, are shown with a selection of clear calls. Calls follow the shape of the dose curve; as a rule, active = well fitted inhibition curve with a large enough effect (not every such curve was filed as active); inconclusive = small, poorly fitted or top-dose-only effect, or another doubt; inactive = no such curve, though single readings can be large or run the other way. No potency is given beside an inconclusive call; the fits are too rough.
# Target: 15-hydroxyprostaglandin dehydrogenase [NAD(+)] (Homo sapiens) (UniProt P15428)
# Sequence of UniProt P15428 (P15428 whole entry, looked up): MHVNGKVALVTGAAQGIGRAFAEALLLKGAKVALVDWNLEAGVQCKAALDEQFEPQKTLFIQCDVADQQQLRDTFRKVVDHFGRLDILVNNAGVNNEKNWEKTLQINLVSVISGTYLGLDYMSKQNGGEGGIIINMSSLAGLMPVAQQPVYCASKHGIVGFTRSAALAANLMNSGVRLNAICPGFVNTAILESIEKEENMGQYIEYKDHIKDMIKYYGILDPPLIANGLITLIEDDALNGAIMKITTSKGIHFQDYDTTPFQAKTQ
# Assay: qHTS Assay for Inhibitors of HPGD (15-Hydroxyprostaglandin Dehydrogenase)
# Details: purified HPGD, NADH fluorescence kinetic, PGE2 substrate; activity change, negative = inhibition: stronger effect = lower value
# Outline: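 NADH formation kinetics: reaction with 30 uM PGE2 and 1 mM NAD+ (final), 20 nM enzyme, Tris-HCl pH 8 with Tween 20, after 15 min compound preincubation at room temperature. Fluorescence change, last versus first of five reads.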
# % is scaled to controls: 0 for no effect and ±100 for the full control effect; potency is read from the fitted curve at half-maximal effect; tags tell the direction and shape of the fitted curve.
SMILES,"activity change, negative = inhibition",Potency
CC=C(/C(=C/C)c1ccc(O)cc1)c1ccc(O)cc1,inactive: -16.9%,–
O=C(c1ccc(S(=O)(=O)c2ccccc2Cl)c([N+](=O)[O-])c1)N1CCCCCC1,–,active: 25.1 µM
COc1ccc(Cl)cc1NS(=O)(=O)c1ccc(S(=O)(=O)N2CCCC2)cc1,inactive: -6.58%,–
CCCCNC(=O)c1ccc2nc(-c3ccco3)c(-c3ccco3)nc2c1,–,active: 25.1 µM
O=C(Cc1cc(=O)[nH][nH]1)N/N=C/c1c(Cl)cccc1Cl,–,active: 25.1 µM and active: 14.1 µM
COc1ccc(-c2cc(C(F)(F)F)n3nc(C(=O)NCCCn4ccnc4)cc3n2)cc1,–,"inconclusive [inhibitor, partial curve]"
COC(=O)c1cc2c(ccn2-c2ccc(F)cc2)n1Cc1ccc(OC(C)=O)cc1,–,"inconclusive [inhibitor, partial curve]"
O=C(NCc1ccco1)c1ccccc1NS(=O)(=O)c1ccc2c(c1)OCCO2,–,"inconclusive [inhibitor, single point]"
Cc1cccc(C)c1Nc1oc(-c2ccccc2)nc1-c1cccc2ccccc12,inactive: -16.6%,–
COc1ccc(-c2cc(-c3cccs3)nc(OC)c2C#N)cc1OC,–,"inconclusive [inhibitor, partial curve]"
Oc1ccc2oc3c(c2c1/C=N/n1cnnc1)CCCC3,–,"inconclusive [inhibitor, partial curve]"
O=C(Nc1cnn(Cc2c(Cl)cccc2Cl)c1)c1ccc([N+](=O)[O-])cc1,inactive: -14.6%,–
CCOc1cc(C(=O)Nc2ccc(C)cc2C)ccc1OCC(=O)N1CCCCC1,inactive: -2.03%,–
COc1cc(/C=N/n2c(C)n[nH]c2=S)ccc1OCc1ccccc1,–,active: 5.62 µM
CCCCCC(O)CCc1n[nH]c(=S)n1-c1ccccc1 (stereo unspecified),–,"inconclusive [inhibitor, single point]"
C=CCn1c(=O)c(C#N)cc2c(=O)n3ccccc3nc21,–,"inconclusive [inhibitor, partial curve]"
O=C(CSc1nnc(Cc2ccccc2)o1)N1CCCc2ccccc21,–,"inconclusive [inhibitor, partial curve]"
Cc1ccccc1S(=O)(=O)Cc1ccc(C(=O)N2CCN(c3ccc(F)cc3)CC2)o1,inactive: -6.5%,–
O=C(CCCn1c(=S)[nH]c2cc3c(cc2c1=O)OCO3)NC1CC1,inactive: -29.8%,–
Fc1ccc(CSc2nc3ncccc3[nH]2)cc1,inactive: -22.5%,–
Cc1cc(C)n(CC(=O)NCc2cc(-c3nn(C)c(=O)c4ccccc34)ccc2C)n1,–,"inconclusive [inhibitor, partial curve]"

# — PubChem BioAssay AID894 (National Center for Advancing Translational Sciences (NCATS), 2007)
